Source: PubChem BioAssay AID493005 (National Center for Advancing Translational Sciences (NCATS), 2010)
The campaign covered roughly 340,000 compounds. Fewer than 10 were called active. Inconclusive results, whose numbers are uncertain, are shown with a selection of clear calls. Calls come from the whole dose curve; as a rule, active = well fitted inhibition curve with a large enough effect in the main read-out, with a control signal flat (not every such curve was filed as active); inconclusive = small, poorly fitted or top-dose-only effect, or effect the other way, or a change in a side signal; inactive = no such curve, though single readings can be large or run the other way. Where the call is inconclusive, the potency comes from a doubtful curve fit. A note “side channel” means that the fit belongs to a control or component signal, not to the main read-out.

Target: Tumor susceptibility gene 101 protein (Homo sapiens) (UniProt Q99816)
Sequence of UniProt Q99816 (Q99816 whole entry, looked up): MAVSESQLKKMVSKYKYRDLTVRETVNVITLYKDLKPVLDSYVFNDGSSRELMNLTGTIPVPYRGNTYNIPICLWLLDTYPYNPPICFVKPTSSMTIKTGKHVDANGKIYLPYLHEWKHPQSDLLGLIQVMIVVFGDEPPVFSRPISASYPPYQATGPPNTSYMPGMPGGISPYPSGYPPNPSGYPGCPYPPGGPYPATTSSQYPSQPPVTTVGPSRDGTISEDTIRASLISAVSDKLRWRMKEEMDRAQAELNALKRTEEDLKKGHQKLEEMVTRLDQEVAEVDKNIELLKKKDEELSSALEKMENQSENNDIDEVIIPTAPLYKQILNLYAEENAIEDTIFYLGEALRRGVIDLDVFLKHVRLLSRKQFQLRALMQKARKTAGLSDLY
Test: qHTS Assay for Iinhibitors of HIV-1 Budding by Blocking the Interaction of PTAP/TSG101
Conditions: Fluorescence polarization, FITC-PTAP peptide / Tsg101 binding; series mostly up to 115 µM
In short: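 Tsg101 binding domain (10 uM final) was mixed with compound and a FITC-labeled PTAP peptide (50 nM final) in HEPES pH 7.5 buffer with NaCl, Tween 20, EDTA and TCEP; fluorescence polarization was read after 20 min at r.t.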
Potency is the fitted concentration of half-maximal effect; tags give direction and shape of the fitted curve or compound fluorescence and quenching.

| SMILES | Potency |
| --- | --- |
| Cc1cn2c(N)c(C=C3C=C(Cl)C(=O)C(Cl)=C3)c(=O)nc2s1 | inconclusive: 39.8 µM [fluorescent, side channel, partial curve] |
| O=C(O)c1ccc(N/N=C/C2=C(N3CCOCC3)C(=C\c3ccccc3)/CC2)cc1 | inconclusive: 79.4 µM [fluorescent, side channel, partial curve, poor fit] |
| COc1ccc(CN2C(=O)c3ccccc3C(/C=N\OCc3ccc(C)cc3)C2=O)cc1 (centres undefined) | inactive |
| CCCCCCn1c(=O)[nH]c2nc3cc(N)ccc3nc2c1=O | inconclusive: 56.2 µM [fluorescent, side channel, partial curve, poor fit] |
| CCCn1c(=N)c(S(=O)(=O)c2ccccc2)cc2c(=O)n3cccc(C)c3nc21 | inconclusive: 39.8 µM [falling, partial curve, poor fit] |
| Cc1cc(NC(=O)CSc2nnnn2C)n(-c2ccccc2)n1 | inactive |
| CC(C)(C)c1cc[n+](-c2[nH]c(=O)sc2/C=N/NC(=O)c2ccccc2[O-])cc1 | inconclusive: 56.2 µM [fluorescent, side channel, partial curve, poor fit] |
| CC1(C)C[C@@H]2C[C@@](C)(CN2C(=O)c2cc(COc3cccc(C(F)(F)F)c3)on2)C1 | inconclusive: 39.8 µM [quencher, side channel, partial curve, poor fit] |
| CCc1cc2c(Sc3nc4ccccc4s3)ncnc2s1 | inactive |
| COc1ccc2cc(CN(Cc3ccco3)C(c3nnnn3C3CCCCC3)C(C)C)c(=O)[nH]c2c1 (centres undefined) | inconclusive: 50.1 µM [quencher, side channel, partial curve, poor fit] |
| COc1ccccc1-n1cc(C(=O)NCC(=O)N2CCN(c3ccccc3)CC2)c2ccccc2c1=O | inactive |
| Cc1cc(C)c2cc3c(N)c(C(=O)N4CCc5ccccc5C4)sc3nc2c1 | inconclusive: 56.2 µM [fluorescent, side channel, partial curve, poor fit] |
| Cc1cc(C)n(-c2ccc(NC(=O)C3CCN(Cc4ccccn4)CC3)cc2)n1 | inactive |
| O=[N+]([O-])c1cc(C(F)(F)F)cc([N+](=O)[O-])c1NN=C1CCCCC1 | inconclusive: 17.8 µM [fluorescent, side channel, full curve, poor fit] |
| COc1ccc(/C=C2\SC(=S)N(CCCC(=O)Nc3cc(C)on3)C2=O)cc1OC | inconclusive: 50.1 µM [fluorescent, side channel, partial curve, poor fit] |
| CCOc1ccc(OCC)c(S(=O)(=O)NCCOC23CC4CC(CC(C4)C2)C3)c1 | inactive |
| CC(C)N1CCc2c(sc(NC(=O)c3ccc(S(=O)(=O)N4CCOCC4)cc3)c2C#N)C1 | inconclusive: 14.1 µM [fluorescent, side channel, single point] |
| Cc1cccc(N=Nc2c(O)[nH]c3ccc(F)cc23)c1 | inconclusive: 79.4 µM [fluorescent, side channel, partial curve, poor fit] |
| Cc1cc(C)nc(NN=CC2=C(N3CCOCC3)/C(=C/c3ccc(Cl)cc3)CC2)n1 | inactive |
| C[C@H](NC(=O)c1nc[nH]c1C(=O)N[C@@H](CCCCNC(=O)OC(C)(C)C)C(=O)OC(C)(C)C)C(=O)OCc1ccccc1 | inconclusive: 35.5 µM [quencher, side channel, partial curve, poor fit] |

| SMILES | Potency |
| --- | --- |
| O=C1CCCN1c1ccc(S(=O)(=O)N2CCN(c3ccccc3)CC2)cc1 | inactive |
| CC(Oc1cccc(Cl)c1)C(=O)Nc1cc(Cl)ccc1N1CCOCC1 (centres undefined) | inactive |
| CCOC(=O)c1c(Cc2ccc(Cl)cc2)c[nH]c1C | inconclusive: 63.1 µM [fluorescent, side channel, partial curve] |
| O=C(NC1CCCC1)c1cccc2c1C(=O)c1ccc(N3CCCCC3)cc1S2(=O)=O | inconclusive: 89.1 µM [fluorescent, side channel, partial curve] |
| CCCCN1C(=O)/C(=C/C=C2/CC(C)(C)CN2C)SC1=S | inconclusive: 50.1 µM [fluorescent, side channel, partial curve, poor fit] |
| CC(=O)Oc1c(/C=C(\C#N)C(N)=O)[nH]c2ccccc12 | inconclusive: 50.1 µM [fluorescent, side channel, partial curve, poor fit] |
| Cc1c(N=C2N=C(NC(=O)c3ccc(F)cc3)c3ccccc32)c(=O)n(-c2ccccc2)n1C | inconclusive: 79.4 µM [fluorescent, partial curve, poor fit] |
| COC(=O)c1ccc(COC(=O)CNC(=O)CNC(=O)c2ccc(OC)cc2)cc1 | inactive |
| CCOc1ccc(C2CC(c3c(O)c4ccccc4oc3=O)=NN2c2ccccc2)cc1OC (centres undefined) | inconclusive: 39.8 µM [fluorescent, side channel, partial curve] |
| CCOC(=O)Cn1nnnc1C(CC)N(Cc1ccccc1)Cc1cc2cc(C)ccc2[nH]c1=O (centres undefined) | inconclusive: 22.4 µM [quencher, side channel, partial curve, poor fit] |
| COc1ccc(-c2nnn(CC(=O)c3c[nH]c4ccccc34)n2)cc1OC | inactive |
| CN(C)c1ccc(NC(=O)C(=O)C2C(=O)Nc3ccccc32)cc1 (centres undefined) | inconclusive: 89.1 µM [fluorescent, side channel, single point] |
| CCn1c(C)cc(C=C2C(=O)c3ccccc3C2=O)c1C | inconclusive: 89.1 µM [fluorescent, single point] |
| CCOC(=O)c1cnc2ccc(OC)cc2c1Nc1ccc(N2CCN(C)CC2)cc1 | inconclusive: 17.8 µM [falling, partial curve, poor fit] |
| O=C1CCNc2ccc(-c3ccccc3)cc21 | inconclusive: 56.2 µM [fluorescent, side channel, partial curve, poor fit] |
| CCOC(=O)C1=C(C)N=c2s/c(=C\c3cccn3C)c(=O)n2C1c1cccc(OC)c1OC (centres undefined) | inconclusive: 79.4 µM [fluorescent, side channel, partial curve] |
| C=CCOc1ccc(C2OC34CCCCC3C(C#N)(C#N)C2(C#N)C(=N)O4)cc1 (centres undefined) | inconclusive: 39.8 µM [falling, partial curve, poor fit] |
| Cc1cc(=O)oc(C)c1C(=O)Nc1ccc2ncccc2c1 | inconclusive: 50.1 µM [fluorescent, side channel, partial curve, poor fit] |
| CC(C)COC(=O)/C(C#N)=C/c1c[nH]c2ccccc12 | inconclusive: 50.1 µM [fluorescent, side channel, partial curve, poor fit] |
| CCCN1C(=O)/C(=C/c2c(NCCCOC(C)C)nc3c(C)cccn3c2=O)SC1=S | inconclusive: 22.4 µM [fluorescent, side channel, partial curve, poor fit] |

| SMILES | Potency |
| --- | --- |
| N#C/C(=C\c1ccccn1)c1nc2ccccc2s1 | inconclusive: 39.8 µM [fluorescent, side channel, partial curve] |
| Cc1cccc(-c2nsc(SCC(=O)c3ccc(Cl)cc3)n2)c1 | inactive |
| Cc1oc(C(C)(C)C)cc1C(=O)Nc1ccc2c(c1)OCO2 | inactive |
| CCOc1ccc(NC(=O)c2ccc3c(c2)CCN3S(C)(=O)=O)cc1 | inconclusive: 31.6 µM [fluorescent, side channel, single point] |
| CC(OCC(O)CN(C)CCOc1ccccc1)c1ccc(Cl)cc1 (centres undefined) | inactive |
| Cn1cccc1/C=C1\CC(C(C)(C)C)C/C(=C\c2cccn2C)C1=O (centres undefined) | inconclusive: 17.8 µM [fluorescent, side channel, full curve, poor fit] |
| N#C/C(=C/c1ccc(N2CCCCC2)o1)C(=O)NCCc1c[nH]c2ccccc12 | inconclusive: 22.4 µM [fluorescent, side channel, full curve] |
| CCN(CC)c1ccc2oc(=O)c(C)nc2c1 | inconclusive: 56.2 µM [fluorescent, side channel, partial curve, poor fit] |
| CC1CC(C)CN(C(=O)c2cccc(S(=O)(=O)Nc3cc(C(F)(F)F)ccc3Cl)c2)C1 (centres undefined) | inactive |
| C/C(=N\NC(=O)CC#N)c1cc2ccc(O)cc2oc1=O | inconclusive: 56.2 µM [fluorescent, side channel, partial curve, poor fit] |
| Fc1ccc2nc(Nc3nc4c(F)cc(F)cc4s3)sc2c1 | inactive |
| CC(C)CCN(C(=O)CNC(=O)c1cccs1)C(C(=O)NC1CCCCC1)c1cccnc1 (centres undefined) | inactive |
| O=C(NCc1ccco1)c1cccc2c1C(=O)c1ccc(N3CCC(Cc4ccccc4)CC3)cc1S2(=O)=O | inconclusive: 50.1 µM [fluorescent, side channel, partial curve, poor fit] |
| Cc1nc(SCC(=O)Nc2ccccc2Cl)c2c(C)c(C)sc2n1 | inactive |
| COc1ccc(C2C(C(=O)c3ccccc3)N3c4ccccc4C=CC3C2[N+](=O)[O-])cc1 (centres undefined) | inconclusive: 35.5 µM [fluorescent, side channel, partial curve, poor fit] |
| CSc1nc(NCC(C)O)c2c3c(sc2n1)CN(C)CC3 (centres undefined) | inactive |
| COc1ccc(/C=C2\SC(=O)N=C2N)cc1OC | inactive |
| CC(=O)c1c(N2CCN(c3ccc(F)cc3)CC2)nc(=S)n(Cc2ccccc2)c1C | inactive |
| COc1ccccc1/C=C/C=C1\Oc2c(ccc(O)c2CN2CCN(CCO)CC2)C1=O | inconclusive: 56.2 µM [fluorescent, side channel, partial curve, poor fit] |
